# In publication PMC4336329 (PLoS ONE, 2015):
# Among all 310,000 compounds or so, about 2,200 (0.71%) showed an effect of 50% or more. Effects have a minus sign here. The list shows a part of the results.
# Biological target: human ether-à-go-go-related gene (hERG) potassium channel (human, UniProt Q12809)
# Assay: primary screen, population patch clamp on CHO cells stably expressing hERG
# human ether-à-go-go-related gene (hERG) potassium channel, sequence (Q12809 whole entry, looked up): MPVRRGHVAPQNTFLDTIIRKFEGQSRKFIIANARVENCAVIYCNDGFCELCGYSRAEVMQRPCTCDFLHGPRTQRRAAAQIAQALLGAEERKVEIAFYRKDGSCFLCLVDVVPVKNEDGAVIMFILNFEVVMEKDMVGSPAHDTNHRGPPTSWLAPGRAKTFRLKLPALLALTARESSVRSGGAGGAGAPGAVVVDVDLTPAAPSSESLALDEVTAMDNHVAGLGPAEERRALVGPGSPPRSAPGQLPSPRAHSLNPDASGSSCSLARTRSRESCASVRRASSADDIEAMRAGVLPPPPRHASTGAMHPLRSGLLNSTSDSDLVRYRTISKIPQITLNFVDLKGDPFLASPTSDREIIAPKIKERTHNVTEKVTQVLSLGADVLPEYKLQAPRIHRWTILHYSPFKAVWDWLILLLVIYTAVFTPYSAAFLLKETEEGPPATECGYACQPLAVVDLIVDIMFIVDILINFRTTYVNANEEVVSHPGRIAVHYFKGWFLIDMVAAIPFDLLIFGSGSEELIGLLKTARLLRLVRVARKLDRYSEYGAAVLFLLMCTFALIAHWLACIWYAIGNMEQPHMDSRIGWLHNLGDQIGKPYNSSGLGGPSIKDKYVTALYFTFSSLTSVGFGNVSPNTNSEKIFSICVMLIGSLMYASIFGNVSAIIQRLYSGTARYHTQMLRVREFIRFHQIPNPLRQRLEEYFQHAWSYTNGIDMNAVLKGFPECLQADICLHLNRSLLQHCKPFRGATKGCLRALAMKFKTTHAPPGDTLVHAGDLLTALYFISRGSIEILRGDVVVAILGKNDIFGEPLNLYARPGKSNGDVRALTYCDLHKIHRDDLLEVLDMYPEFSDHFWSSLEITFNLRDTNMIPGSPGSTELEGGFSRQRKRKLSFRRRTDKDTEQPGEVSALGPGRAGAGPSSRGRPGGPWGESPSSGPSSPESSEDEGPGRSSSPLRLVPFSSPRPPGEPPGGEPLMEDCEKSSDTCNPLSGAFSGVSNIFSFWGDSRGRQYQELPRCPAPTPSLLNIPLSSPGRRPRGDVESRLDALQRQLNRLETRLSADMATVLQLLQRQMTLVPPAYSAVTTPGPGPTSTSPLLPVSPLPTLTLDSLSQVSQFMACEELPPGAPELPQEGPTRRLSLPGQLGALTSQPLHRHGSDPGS
row,SMILES,"hERG current change (%, negative = inhibition) at 1uM [%]"
1,CCC[N+](CC#Cc1ccccc1)(CCC)CC(=O)OCC,10.5
2,Cc1ccccc1/C=N\NC(=O)c1ccc(Cn2cccn2)o1,2.53
3,COc1cc(C(=O)N(Cc2ccc(F)cc2)C2CCS(=O)(=O)C2)cc(OC)c1OC (stereo not shown),11.2
4,CCOC1OC(=O)C(Cl)=C1Nc1ccccc1C (stereo not shown),3.08
5,O=C(Nc1ccccc1)N1CCN(CCc2ccccc2)CC1,5.19
6,Cc1ccc(OCCCCN2CCCCC2)cc1,9.11
7,CCn1ncc(CNC(=O)C2(C)CC2(Br)Br)c1C (stereo not shown),22
8,COc1ccc(NC(=O)N[C@@H](CCSC)C(=O)O)cc1OC,7.81
9,COc1ccc(OCCCn2cccc2/C=C2/C(=N)N3OC(C)=CC3=NC2=O)cc1,6.39
10,CC(C)(C)c1cc(CCC(=O)N2CCC2)cc(C(C)(C)C)c1O,8.57
11,CCN1C(=O)C(CC(=O)Nc2ccc(F)cc2)N(CCCN2CCN(c3ccc(F)cc3)CC2)C1=S (stereo not shown),0.806
12,COCCn1nnnc1C(c1ccccc1OC)N1CCc2ccccc2C1 (stereo not shown),4.3
13,Cc1c(NC(=S)NC(=O)c2ccc(Br)o2)c(=O)n(-c2ccccc2)n1C,13.2
14,COc1nc(C)cc(C)c1S(=O)(=O)c1ccccc1C,15.1
15,CCOC(=O)c1ccc(N2C(=O)[C@@H](c3ccccc3)[C@H]2c2ccccc2)cc1,8.55
16,COc1ccc(CC(=O)Oc2cc(C)[nH]c(=O)c2[N+](=O)[O-])cc1,4.19
17,COc1ccccc1NC(=O)N1CCN(c2ncccn2)CC1,1.94
18,Cc1ccc(N2CCN(C(=O)c3ccccc3F)CC2)c(C)c1,2.44
19,COc1ccc(C2C(C(=O)c3cccs3)=C(O)C(=O)N2c2nnc(C)s2)cc1OC (stereo not shown),7.85
20,CCc1c(C)c(C#N)c2nc3ccccc3n2c1NCC1CCCO1 (stereo not shown),-3.59
21,COC(CNC(=O)CCc1c(C)nc2c(-c3ccc(F)cc3)c(C)nn2c1C)OC,14.4
22,O=C(COC(=O)/C=C/c1ccc(C(F)(F)F)cc1)NCC1CCCCC1,8.62
23,CCOc1cc(NC(=O)c2ccccn2)c(OCC)cc1NC(=O)c1ccccc1,16.8
24,CCOc1cccc(C2/C(=C(\O)c3ccc4c(c3)OCCO4)C(=O)C(=O)N2Cc2ccncc2)c1 (stereo not shown),8.15
25,NS(=O)(=O)c1ccc(CCN=C(NS(=O)(=O)c2cccs2)c2ccccc2)cc1,7.79
26,CCC(C(=O)NC(C)CCc1ccccc1)n1nc(C)n2c(cc3occc32)c1=O (stereo not shown),8.19
27,O=C(CSc1ncn[nH]1)Nc1nc(-c2ccccc2)ns1,-7.37
28,Cc1cc(C)c2c(N)c(C(=O)NN3CC(=O)N(c4ccccc4)CC3=O)sc2n1,7.75

row,SMILES,"hERG current change (%, negative = inhibition) at 1uM [%]"
1,COc1ccc(C(=O)Nc2ccccc2NC(=O)c2ccc(OC)cc2)cc1,1.94
2,C=C1SC(=Nc2ccccc2Cl)N(C(=O)c2sc3ccccc3c2Cl)C12CCCCC2,10.9
3,COCCNC(=S)N(CCc1c(C)[nH]c2ccc(F)cc12)Cc1ccco1,16.6
4,Cc1cccc(N2CCN(C(=O)c3ccc(Cl)c(S(=O)(=O)NCc4ccco4)c3)CC2)c1C,12.6
5,CC(OC(=O)CN(C)S(=O)(=O)c1ccc(Cl)cc1)C(=O)Nc1ncc(Cl)cc1Cl (stereo not shown),-13.3
6,CCC(Sc1nc2ccccc2c(=O)n1CC1CCCO1)C(=O)NCc1cccnc1 (stereo not shown),3.14
7,O=C(NCCC1CCCCN1S(=O)(=O)c1ccccc1)C(=O)NCc1ccccc1F (stereo not shown),10.4
8,Cc1ccc(NC(=O)CCCCCN2C(=O)[C@@H]3Cc4ccccc4CN3C2=O)cc1,6.46
9,Cc1nc([N+](=O)[O-])c(N2CCOCC2)n1Cc1ccccc1,12.8
10,Cc1ccccc1OCc1nnc(SC(C)C(=O)O)n1Cc1ccccc1 (stereo not shown),10.9
11,C=CCNC(=O)CC1C(=O)NCCN1Cc1ccc(-c2ccccc2)cc1 (stereo not shown),3.44
12,CN(Cc1cccs1)C(=O)Cc1csc(-c2ccccc2)n1,5.57
13,CCCOc1cccc(C(=O)Nc2ccccc2C(=O)N2CCN(C)CC2)c1,-21.3
14,CCn1cc(C(=O)NCCCN2CC(C)CC(C)C2)c2cc(OC)c(OC)cc2c1=O (stereo not shown),5.77
15,CC(C(=O)Nc1ccncc1)(c1ccccc1)c1ccccc1,-8.74
16,CCc1nc(Nc2cccc(O)c2)c2oc3ccccc3c2n1.Cl,4.28
17,Cc1ccccc1CC1CCN(CCCNC(=O)Nc2ccccc2)CC1,-34.1
18,Brc1ccccc1C1=Nn2c(nnc2-c2ccccc2)SC1,15.1
19,COCOc1ccc(C=O)c(O)c1,13.9
20,Nc1c(Cl)cc(C2=NCCn3c2c2ccc([N+](=O)[O-])cc2[n+]3[O-])cc1Cl,-5.67
21,CCCC[C@@H]1C[C@H]1[C@@H](NC(=O)c1cccs1)c1ccc(Cl)cc1,11.8
22,Cc1ccc(NC(=O)c2c([N+](=O)[O-])c(C(C)(C)C)nn2C)cc1,8.08
23,CCCN(C(=O)c1cc(Cl)nc2ccccc12)C1CCS(=O)(=O)C1 (stereo not shown),11
24,COC(=O)C1=C(c2ccccc2)C[C@@H]2CC[C@H]1N2C(=O)NCCS(C)=O (stereo partly shown),19.1
25,Cc1c([N+](=O)[O-])cnc(Sc2ccccc2)c1[N+](=O)[O-],8.28
26,Cc1[nH]n(-c2ccccc2)c(=O)c1/C=N/NC(=O)C(C)C,5.77
27,CCN(CC)CCn1c2ccc(Cl)cc2c2nc(C)sc21.Cl,-49.7
